# Source: the supplement of paper PMC8728848
# Some of the results follow.
# B1: Flo11 (Saccharomyces cerevisiae), Q1H8S8 (protein)
# chain: MGSSHHHHHHSSGLVPRGSHMFPTALVPRGSSEGTSCNSIVNGCPNLDFNWHMDQQNIMQYTLDVTSVSWVQDNTYQITIHVKGKENIDLKYLWSLKIIGVTGPKGTVQLYGYNENTYLIDNPTDFTATFEVYATQDVNSCQVWMPNFQIQFEYLQGSAAQYASSWQWGTTSFDLSTGCNNYDNQGHSQTDFPGFYWNIDCDNNCGGTKSS
# What was measured:
# Experiment in all cases: glycan array binding signal (z-score within array); higher = stronger binding
# Conditions in all cases: glycan notation: IUPAC condensed, linker removed
# [1] = target: GlcNAc(a1-4)Gal(b1-4)GlcNAc(b1-3)Gal(b1-4)GlcNAc(b1-3)Gal(b1-4)GlcNAc
# In short: (§1)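 Columns mapping to the same glycan were averaged after glycan names were converted to IUPAC-condensed notation. The data come from 3228 arrays in the Consortium for Functional Glycomics database, limited to those with an available protein sequence. Binding is reported as a within-array Z-score averaged across arrays of one protein sequence and across linkers.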
# [2] = target: GlcNAc(a1-4)Gal(b1-4)GlcNAc(b1-3)Gal(b1-4)[Fuc(a1-3)]GlcNAc(b1-3)Gal(b1-4)[Fuc(a1-3)]GlcNAc
# In short: as §1
# [3] = target: GlcNAc(a1-6)Gal(b1-4)GlcNAc
# In short: as §1
# [4] = target: GlcNAc(b1-2)Gal(b1-3)GalNAc
# In short: as §1
# [5] = target: GlcNAc(b1-2)Man(a1-3)[GlcNAc(b1-2)Man(a1-6)]Man(b1-4)GlcNAc(b1-4)GlcNAc
# In short: as §1
# [6] = target: GlcNAc(b1-2)Man(a1-3)[GlcNAc(b1-2)Man(a1-6)]Man(b1-4)GlcNAc(b1-4)[Fuc(a1-6)]GlcNAc
# In short: as §1
# GlcNAc(b1-3)Gal = target: GlcNAc(b1-3)Gal
# In short: as §1
# [7] = target: GlcNAc(b1-3)Gal(b1-3)GalNAc
# In short: as §1
# GlcNAc(b1-3)Gal(b1-4)Glc = target: GlcNAc(b1-3)Gal(b1-4)Glc
# In short: as §1
# [8] = target: GlcNAc(b1-3)Gal(b1-4)GlcNAc
# In short: as §1
# [9] = target: GlcNAc(b1-3)Gal(b1-4)GlcNAc(b1-3)Gal(b1-4)GlcNAc
# In short: as §1
# GlcNAc(b1-3)GalNAc = target: GlcNAc(b1-3)GalNAc
# In short: as §1
# GlcNAc(b1-3)Man = target: GlcNAc(b1-3)Man
# In short: as §1
# [10] = target: GlcNAc(b1-3)[GlcNAc(b1-4)][GlcNAc(b1-6)]GlcNAc
# In short: as §1
# [11] = target: GlcNAc(b1-3)[GlcNAc(b1-6)]Gal(b1-4)GlcNAc
# In short: as §1
# [12] = target: GlcNAc(b1-3)[GlcNAc(b1-6)]GalNAc
# In short: as §1
# [13] = target: GlcNAc(b1-4)Gal(b1-4)GlcNAc
# In short: as §1
# GlcNAc(b1-4)GlcNAc = target: GlcNAc(b1-4)GlcNAc
# In short: as §1
# [14] = target: GlcNAc(b1-4)GlcNAc(b1-4)GlcNAc
# In short: as §1
# [15] = target: GlcNAc(b1-4)GlcNAc(b1-4)GlcNAc(b1-4)GlcNAc(b1-4)GlcNAc
# In short: as §1
# [16] = target: GlcNAc(b1-4)GlcNAc(b1-4)GlcNAc(b1-4)GlcNAc(b1-4)GlcNAc(b1-4)GlcNAc
# In short: as §1
# [17] = target: GlcNAc(b1-4)[GlcNAc(b1-6)]GalNAc
# In short: as §1
# [18] = target: GlcNAc(b1-6)Gal(b1-4)GlcNAc
# In short: as §1
# GlcNAc(b1-6)GalNAc = target: GlcNAc(b1-6)GalNAc
# In short: as §1
# GlcNAc3Prop(b1-4)GlcNAc = target: GlcNAc3Prop(b1-4)GlcNAc
# In short: as §1
# [19] = target: GlcNAc6S(b1-3)Gal(b1-4)GlcNAc
# In short: as §1
# Kdn(a2-3)Gal(b1-3)GalNAc = target: Kdn(a2-3)Gal(b1-3)GalNAc
# In short: as §1
# Kdn(a2-3)Gal(b1-3)GlcNAc = target: Kdn(a2-3)Gal(b1-3)GlcNAc
# In short: as §1
# Kdn(a2-3)Gal(b1-4)Glc = target: Kdn(a2-3)Gal(b1-4)Glc
# In short: as §1
# Kdn(a2-3)Gal(b1-4)GlcNAc = target: Kdn(a2-3)Gal(b1-4)GlcNAc
# In short: as §1
# [20] = target: Kdn(a2-3)Gal(b1-4)[Fuc(a1-3)]GlcNAc
# In short: as §1
# Kdn(a2-6)Gal(b1-4)GlcNAc = target: Kdn(a2-6)Gal(b1-4)GlcNAc
# In short: as §1
# [21] = target: Man(a1-2)Man(a1-2)Man(a1-3)Man
# In short: as §1
# [22] = target: Man(a1-2)Man(a1-2)Man(a1-6)[Man(a1-3)]Man
# In short: as §1
# Man(a1-2)Man(a1-3)Man = target: Man(a1-2)Man(a1-3)Man
# In short: as §1
# [23] = target: Man(a1-2)Man(a1-3)[Man(a1-2)Man(a1-6)]Man
# In short: as §1
# [24] = target: Man(a1-2)Man(a1-3)[Man(a1-2)Man(a1-6)]Man(a1-6)[Man(a1-2)Man(a1-2)Man(a1-3)]Man
# In short: as §1
# [25] = target: Man(a1-2)Man(a1-3)[Man(a1-2)Man(a1-6)]Man(a1-6)[Man(a1-2)Man(a1-2)Man(a1-3)]Man(b1-4)GlcNAc(b1-4)GlcNAc
# In short: as §1
# [26] = target: Man(a1-2)Man(a1-3)[Man(a1-6)]Man(a1-6)[Man(a1-2)Man(a1-3)]Man(b1-4)GlcNAc(b1-4)GlcNAc
# In short: as §1
# [27] = target: Man(a1-2)Man(a1-6)[Man(a1-3)]Man(a1-6)[Man(a1-2)Man(a1-2)Man(a1-3)]Man
# In short: as §1
# [28] = target: Man(a1-2)Man(a1-6)[Man(a1-3)]Man(a1-6)[Man(a1-2)Man(a1-2)Man(a1-3)]Man(b1-4)GlcNAc(b1-4)GlcNAc
# In short: as §1
# Man(a1-3)[Man(a1-6)]Man = target: Man(a1-3)[Man(a1-6)]Man
# In short: as §1
# [29] = target: Man(a1-3)[Man(a1-6)]Man(a1-6)[Man(a1-2)Man(a1-3)]Man(b1-4)GlcNAc(b1-4)GlcNAc
# In short: as §1
# [30] = target: Man(a1-3)[Man(a1-6)]Man(a1-6)[Man(a1-3)]Man
# In short: as §1
binder,measurement,setting,value
B1,glycan array binding signal (z-score),[1],1.56
same,glycan array binding signal (z-score),[2],0.071
same,glycan array binding signal (z-score),[3],-0.51
same,glycan array binding signal (z-score),[4],0.891
same,glycan array binding signal (z-score),[5],-0.505
same,glycan array binding signal (z-score),[6],-0.486
same,glycan array binding signal (z-score),GlcNAc(b1-3)Gal,-0.507
same,glycan array binding signal (z-score),[7],1.75
same,glycan array binding signal (z-score),GlcNAc(b1-3)Gal(b1-4)Glc,1.26
same,glycan array binding signal (z-score),[8],1.62
same,glycan array binding signal (z-score),[9],2.19
same,glycan array binding signal (z-score),GlcNAc(b1-3)GalNAc,1.48
same,glycan array binding signal (z-score),GlcNAc(b1-3)Man,-0.504
same,glycan array binding signal (z-score),[10],-0.504
same,glycan array binding signal (z-score),[11],-0.494
same,glycan array binding signal (z-score),[12],-0.451
same,glycan array binding signal (z-score),[13],-0.509
same,glycan array binding signal (z-score),GlcNAc(b1-4)GlcNAc,-0.501
same,glycan array binding signal (z-score),[14],-0.499
same,glycan array binding signal (z-score),[15],-0.503
same,glycan array binding signal (z-score),[16],-0.507
same,glycan array binding signal (z-score),[17],-0.504
same,glycan array binding signal (z-score),[18],-0.501
same,glycan array binding signal (z-score),GlcNAc(b1-6)GalNAc,-0.461
same,glycan array binding signal (z-score),GlcNAc3Prop(b1-4)GlcNAc,-0.508
same,glycan array binding signal (z-score),[19],0.409
same,glycan array binding signal (z-score),Kdn(a2-3)Gal(b1-3)GalNAc,0.387
same,glycan array binding signal (z-score),Kdn(a2-3)Gal(b1-3)GlcNAc,-0.491
same,glycan array binding signal (z-score),Kdn(a2-3)Gal(b1-4)Glc,-0.508
same,glycan array binding signal (z-score),Kdn(a2-3)Gal(b1-4)GlcNAc,-0.496
same,glycan array binding signal (z-score),[20],0.794
same,glycan array binding signal (z-score),Kdn(a2-6)Gal(b1-4)GlcNAc,-0.508
same,glycan array binding signal (z-score),[21],-0.505
same,glycan array binding signal (z-score),[22],-0.507
same,glycan array binding signal (z-score),Man(a1-2)Man(a1-3)Man,-0.503
same,glycan array binding signal (z-score),[23],-0.502
same,glycan array binding signal (z-score),[24],-0.505
same,glycan array binding signal (z-score),[25],-0.495
same,glycan array binding signal (z-score),[26],-0.495
same,glycan array binding signal (z-score),[27],-0.504
same,glycan array binding signal (z-score),[28],-0.502
same,glycan array binding signal (z-score),Man(a1-3)[Man(a1-6)]Man,-0.502
same,glycan array binding signal (z-score),[29],-0.506
same,glycan array binding signal (z-score),[30],-0.511
